{"source": "PubChem BioAssay AID1671193", "about": "(National Center for Advancing Translational Sciences (NCATS), 2021)", "note": "About 180 (0.12%) of roughly 150,000 compounds were called active. The shares of active, inactive and inconclusive entries below differ from those in the screen. Calls follow the shape of the dose curve; as a rule, active = well fitted cell-killing curve with a large enough effect; inconclusive = small, poorly fitted or top-dose-only effect, or effect the other way; inactive = flat fitted curve, though single readings scatter. A potency beside an inconclusive call is a rough fit, not a confirmed value. Potency is read from the fitted curve at half-maximal effect; tags tell the direction and shape of the fitted curve.", "data": [{"assay": "GF-AFC viability counterscreen for inhibitors of alpha-synuclein gene (SNCA) expression; also: nearly all actives have a fitted effect of over 30% in size", "details": "HEK-293-SNCA-luc viability, GF-AFC fluorescence, 24 h; series mostly up to 57.1 µM", "summary_of_the_method": "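HEK-293-SNCA-luc cells (1500/well) plated 24 h, then exposed 24 h to a dilution series; GF-AFC added 30 min at 37C, fluorescence 405/540 nm; normalised to medium-only and DMSO wells, Hill fit.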", "values": [{"smiles": "N#CCCn1c(=O)c(-c2ccc(F)cc2)nc2cnc(N3CCOCC3)nc21", "Potency": "inconclusive: 31.6 µM [rising, partial curve, poor fit]"}, {"smiles": "OC[C@@H]1O[C@H](CN(Cc2cccc(Cl)c2)Cc2cccc(Cl)c2)[C@H](N2CCN(c3ccccn3)CC2)[C@@H]1O", "Potency": "inactive"}, {"smiles": "O=C(NCc1cccc(C(F)(F)F)c1)c1ccc2nnc(Cc3ccc(Cl)cc3)n2c1", "Potency": "inconclusive: 39.8 µM [cytotoxic, single point]"}, {"smiles": "CC(C)c1ccc(CC(=O)N2CCCc3ncc(C(=O)Nc4ccc5[nH]ccc5c4)cc32)cc1", "Potency": "inconclusive: 25.1 µM [cytotoxic, partial curve, poor fit]"}, {"smiles": "COc1ccc(C2=NOC3(CCN([S+](=O)([O-])c4cccc(C(F)(F)F)c4)C3)C2)cc1", "note": "(stereo not given)", "Potency": "inconclusive: 31.6 µM [cytotoxic, partial curve, poor fit]"}, {"smiles": "COCCNC(=O)c1cn2ccnc(-c3ccc(C)cc3)c2n1", "Potency": "inactive"}, {"smiles": "COc1ccc(-c2cc3ccc(O)c(CN4CCC(C)CC4)c3oc2=O)cc1", "Potency": "inconclusive: 8.91 µM [rising, partial curve]"}, {"smiles": "Cc1cccc(-c2nc3scc(CCNS(=O)(=O)c4ccc(Oc5ccccc5)cc4)n3n2)c1", "Potency": "inconclusive: 28.2 µM [cytotoxic, partial curve, poor fit]"}, {"smiles": "Cc1cc(-c2ccc(CC(=O)Nc3ccc(-c4cccnc4)cc3)cc2)ccn1", "Potency": "inconclusive: 10.8 µM [cytotoxic, full curve]"}, {"smiles": "CCC(=O)Nc1ccccc1-c1nc2ccccc2n(C(C)C(=O)Nc2cccc(Cl)c2C)c1=O", "note": "(stereo not given)", "Potency": "inconclusive: 11.2 µM [cytotoxic, partial curve]"}, {"smiles": "COc1ccc(-c2nc3cnc(N4CCNCC4)nc3n(CCc3ccccc3)c2=O)cc1", "Potency": "inconclusive: 39.8 µM [rising, single point]"}, {"smiles": "O=C(CCCn1c(=O)c2ccccc2n(CC(=O)Nc2cccc(Cl)c2)c1=O)NCc1ccc2c(c1)OCO2", "Potency": "inconclusive: 1.41 µM [rising, full curve, poor fit]"}, {"smiles": "COC(=O)c1ccccc1NC(=O)O[C@@H]1CO[C@H]2[C@@H]1OC[C@@H]2Nc1nccc(-c2ccc3c(c2)OCO3)n1", "Potency": "inactive"}, {"smiles": "CC1CCCCN1CCCNC(=O)c1ccc2c(c1)sc1nc(-c3ccc(F)cc3)cn12", "note": "(stereo not given)", "Potency": "inconclusive: 31.6 µM [cytotoxic, partial curve, poor fit]"}, {"smiles": "COc1ccc(C(=O)N2CCC3(CC2)CCN(Cc2cccs2)c2ccccc2O3)cc1", "Potency": "inconclusive: 39.8 µM [cytotoxic, single point]"}, {"smiles": "COc1ccc(C(=O)N2CCN(C(=O)c3nnn4c3COC(c3ccc(F)cc3)C4)CC2)cc1", "note": "(stereo not given)", "Potency": "inactive"}, {"smiles": "COc1ccc(C(=O)N2CCOCC3(CN(Cc4ccc(F)c(Cl)c4)C3)C2)cc1OC", "Potency": "inactive"}, {"smiles": "Cc1cccc(CN2CCCC3(CCN(C(=O)CCc4ccccc4C)C3)C2)c1", "note": "(stereo not given)", "Potency": "inactive"}, {"smiles": "O=C(c1nnc(CNc2ccccc2)n1-c1ccccc1)N1CCC[C@@H]1C(c1ccccc1)c1ccccc1", "Potency": "inconclusive: 35.5 µM [cytotoxic, single point]"}, {"smiles": "C[C@H]1[C@@H]2[C@H]3OC(=O)[C@@H](C)[C@@H]3CC[C@@]2(C)CC[C@@H]1NC(=O)c1ccncc1", "Potency": "inactive"}, {"smiles": "CC(C)c1ncc(C(=O)N2CC[C@H](N3CCN(C)CC3)[C@H](CCCO)C2)cn1", "Potency": "inconclusive: 6.31 µM [rising, partial curve, poor fit]"}, {"smiles": "Cc1ccc(F)cc1NC(=O)c1ccc(Cn2nc(N3CCN(c4ccccc4)CC3)ccc2=O)o1", "Potency": "inconclusive: 39.8 µM [cytotoxic, single point]"}, {"smiles": "CCOc1ccc(NC(=O)Cn2cccc2-c2nc(-c3ccccc3)no2)cc1", "Potency": "inconclusive: 14.1 µM [cytotoxic, partial curve]"}, {"smiles": "O=C(Cc1ccsc1)N1CCC(c2nc(C3CCOCC3)no2)C1", "note": "(stereo not given)", "Potency": "inactive"}, {"smiles": "COc1ccc(C(=O)N[C@@H]2CN(Cc3ccncc3)C[C@H]2CN(C)C)cc1F", "Potency": "inconclusive: 14.1 µM [cytotoxic, partial curve, poor fit]"}, {"smiles": "COc1ccc(C(=O)N[C@H]2C[C@@H](c3nc(-c4ccncc4)no3)N(C)C2)cc1", "Potency": "inconclusive: 35.5 µM [cytotoxic, partial curve]"}, {"smiles": "CCc1ccc(NC(=O)CN2CCSc3ccc(S(=O)(=O)N4CCCC4)cc32)cc1", "Potency": "inconclusive: 28.2 µM [cytotoxic, partial curve, poor fit]"}, {"smiles": "C=C1C(=O)O[C@H]2/C=C(/C)[C@@H](OC(C)=O)C/C=C(\\C)C[C@@H](OC(=O)/C(=C/C)COC(=O)/C(=C/C)CO)[C@@H]12", "Potency": "inconclusive: 13 µM [cytotoxic, single point]"}, {"smiles": "Cc1ccc(NC(=O)CSC2=Nc3ccccc3C3=NC(Cc4ccccc4)C(=O)N23)cc1C", "note": "(stereo not given)", "Potency": "inconclusive: 12.6 µM [cytotoxic, partial curve, poor fit]"}, {"smiles": "COc1ccc(NC(=O)Cn2c(=O)n(Cc3ccco3)c(=O)c3cc(OC)c(OC)cc32)cc1", "Potency": "inconclusive: 22.4 µM [cytotoxic, partial curve, poor fit]"}, {"smiles": "C[C@@H]1CC[C@]2(C(=O)O[C@@H]3O[C@H](CO[C@@H]4O[C@H](CO)[C@@H](O)[C@H](O)[C@H]4O)[C@@H](O)[C@H](O)[C@H]3O)CC[C@]3(C)C(=CCC4[C@@]5(C)CC[C@H](O)[C@](C)(C(=O)O)C5CC[C@]43C)[C@@H]2[C@]1(C)O", "note": "(stereo not given in full)", "Potency": "inconclusive: 5.05 µM [cytotoxic, partial curve, poor fit]"}, {"smiles": "COc1ccccc1CNC(=O)CCC1N=C2c3ccccc3N=C(SCC(N)=O)N2C1=O", "note": "(stereo not given)", "Potency": "inconclusive: 0.355 µM [rising, full curve, poor fit]"}, {"smiles": "Cc1nn2c(c1-c1ccccc1-c1ccccc1)N(Cc1ccccc1)CCC2", "Potency": "inconclusive: 5.62 µM [cytotoxic, full curve]"}, {"smiles": "COc1cc(C2NC(=O)N(C)C3=C2C(=O)N(c2cccc(Cl)c2)C3)ccc1O", "note": "(stereo not given)", "Potency": "inconclusive: 4.47 µM [cytotoxic, partial curve, poor fit]"}, {"smiles": "c1ccc(Nc2cc3c(cn2)NCCN(Cc2ccc4[nH]ccc4c2)C3)cc1", "Potency": "inconclusive: 56.2 µM [cytotoxic, single point]"}]}]}
